In all, about 310,000 compounds went through this assay and about 14,000 (4.5%) showed an effect of 50% or more. Effects have a minus sign here. The list shows a part of the results.
biological target: human ether-à-go-go-related gene (hERG) potassium channel (human, UniProt Q12809); assay: primary screen, population patch clamp on CHO cells stably expressing hERG
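Note: peak tail current of the secondary pulse compared with the same well before compound.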

human ether-à-go-go-related gene (hERG) potassium channel, sequence (Q12809 whole entry, looked up): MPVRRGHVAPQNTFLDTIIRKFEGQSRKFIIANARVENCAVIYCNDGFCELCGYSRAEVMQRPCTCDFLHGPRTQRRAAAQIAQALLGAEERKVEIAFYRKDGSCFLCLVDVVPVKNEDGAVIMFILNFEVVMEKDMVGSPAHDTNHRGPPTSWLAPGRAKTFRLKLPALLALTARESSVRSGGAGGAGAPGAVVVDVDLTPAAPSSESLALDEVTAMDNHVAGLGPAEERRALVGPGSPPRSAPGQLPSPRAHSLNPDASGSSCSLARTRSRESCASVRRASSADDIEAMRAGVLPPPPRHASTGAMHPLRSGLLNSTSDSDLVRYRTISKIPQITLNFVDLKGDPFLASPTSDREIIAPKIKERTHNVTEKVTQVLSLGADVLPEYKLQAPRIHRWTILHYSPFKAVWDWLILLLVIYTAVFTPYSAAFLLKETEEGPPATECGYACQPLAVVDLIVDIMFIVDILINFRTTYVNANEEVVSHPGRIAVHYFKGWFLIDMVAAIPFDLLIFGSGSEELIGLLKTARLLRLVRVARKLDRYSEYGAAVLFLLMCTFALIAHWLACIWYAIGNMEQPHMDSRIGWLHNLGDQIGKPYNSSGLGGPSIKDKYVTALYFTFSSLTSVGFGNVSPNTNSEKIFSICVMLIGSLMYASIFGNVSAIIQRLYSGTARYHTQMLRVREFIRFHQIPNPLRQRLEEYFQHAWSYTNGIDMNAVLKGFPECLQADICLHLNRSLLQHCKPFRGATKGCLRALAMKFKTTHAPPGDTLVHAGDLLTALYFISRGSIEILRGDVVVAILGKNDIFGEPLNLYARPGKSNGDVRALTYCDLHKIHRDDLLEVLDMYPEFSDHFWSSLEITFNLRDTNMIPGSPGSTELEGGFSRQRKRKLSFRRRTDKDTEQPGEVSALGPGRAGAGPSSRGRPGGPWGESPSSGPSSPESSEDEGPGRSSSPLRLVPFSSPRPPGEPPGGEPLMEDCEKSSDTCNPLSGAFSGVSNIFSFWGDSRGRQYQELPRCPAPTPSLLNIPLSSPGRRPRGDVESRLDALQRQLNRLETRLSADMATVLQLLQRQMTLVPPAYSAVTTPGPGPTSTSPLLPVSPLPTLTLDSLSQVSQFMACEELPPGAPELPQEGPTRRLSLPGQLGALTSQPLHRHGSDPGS

| Compound | hERG current change (%, negative = inhibition) at 10uM |
| --- | --- |
| CC(C)(C)c1cc(OC(=O)c2ccccc2F)ccc1O | -26.2% |
| CCn1cc(CNCc2c(C(=O)N3CCCCC3)nc3c(C)cccn23)cn1 | -21.1% |
| Fc1ccc(Nc2ccnc(C(F)(F)F)c2)cc1 | 2.74% |
| Cc1ccc(NS(=O)(=O)c2ccc(Br)cc2)nc1 | 17.1% |
| COCCN1CCN(C(=O)C2CCC(=O)N(Cc3ccc(Cl)cc3)C2)CC1 (centres unmarked) | -1.8% |
| CCc1ccc(/C=C2\SC(N3CCCC3)=NC2=O)cc1 | -46.9% |
| COc1cc2c(cc1OC)CN(C(=O)CN1CCN(S(=O)(=O)c3ccccc3Br)CC1)CC2 | -45.5% |
| CC(C)(C)c1cc(C(=O)NC2CC2)n(Cc2ccc(F)cc2)n1 | 5.31% |
| CCOC(=O)Cn1nnnc1CN(Cc1cccs1)Cc1cc2cc(C)cc(C)c2[nH]c1=O | -22.8% |
| CN1C(=O)[C@H]2[C@@H](/C=C/c3ccccc3)N3C(=O)CN(CC4CC4)C(=O)[C@@]3(C)[C@H]2C1=O | 12% |
| O=C(NNC(=O)c1cc2cc3ccccc3nc2s1)c1cccc(C(F)(F)F)c1 | 8.19% |
| COc1ccc(CC(=O)Nc2c3c(nn2-c2cccc(Cl)c2)CS(=O)C3)cc1 (centres unmarked) | -37.1% |
| NC(=O)c1ccccc1NC(=O)C(c1ccccc1)c1ccccc1 | 0.258% |
| CNc1ccc([N+](=O)[O-])cc1C(=O)O | 2.21% |
| COC(=O)c1sccc1NC(=O)C1C2C=CC(O2)C1C(=O)O (centres unmarked) | 5.99% |
| CCCCNC(=S)NNC(=O)c1ccc2c(c1)OCO2 | 5.46% |
| Cn1ccnc1SCC(=O)Nc1nc2c(F)c(F)c(F)cc2s1 | 11.3% |
| CCOC(=O)N1CCN(CC(=O)Nc2c(C(=O)OC)[nH]c3ccccc23)CC1 | -10.2% |
| CCCCC(C(=O)NC(C)(C)C)N(Cc1ccccc1)C(=O)c1snc(C(N)=O)c1N (centres unmarked) | -15.8% |
| Fc1ccc(-c2ccc(-c3nn4c(-c5ccco5)nnc4s3)o2)cc1 | -3.26% |
| Cc1cccc(C(=O)NNC2=C(C(=O)C(F)(F)F)CCC2)c1O | 27.9% |
| C=CCC(O)(CC=C)CNC(=O)C1CCC(=O)N(CCCc2ccccc2)C1 (centres unmarked) | 0.253% |
| COC(=O)c1ccc(Cn2nc(-c3ccc(C)cc3)ccc2=O)cc1 | 23.5% |

| Compound | hERG current change (%, negative = inhibition) at 10uM |
| --- | --- |
| CCOC(=O)c1cc(-c2ccccc2)sc1NC(=O)CSc1nnc(N)s1 | 13.3% |
| COc1ccc(NC(=O)c2cc(Br)ccc2Cl)c(OC)c1 | -5.12% |
| O=C(O)C1CCN(C(=O)c2ccccc2N2C(=O)[C@@H]3Cc4c([nH]c5ccccc45)C(c4cccc(Cl)c4)N3C2=O)CC1 (some centres unmarked) | 8.89% |
| CON/C=C(\C=Nc1ccc(Cl)cc1Cl)c1ncc(C(F)(F)F)cc1Cl | 8.82% |
| CCOC(=O)c1cnc(-c2ccccc2O)nc1Cl | -3.07% |
| FC(F)(F)c1cnc(-c2cnc3c(-c4ccc(Cl)cc4)cnn3c2)c(Cl)c1 | -5.19% |
| COc1cccc(NC(=O)C2C3C=CC(O3)C2C(=O)O)c1 (centres unmarked) | 10.6% |
| CC1(NC(=O)NCc2ccco2)CCS(=O)(=O)C1 (centres unmarked) | -9.21% |
| O=C(CNc1ccc(Oc2ccccc2)cc1)N1CCOCC1.O=C(O)C(=O)O | -17.4% |
| COc1cccc(N2CCN(CC(=O)NCc3ccccc3)CC2)c1 | -5.53% |
| C#CCOCCOCCOCCNc1nc(N2CCN(C(=O)[C@H](CCCC[NH3+])n3cc(CCC(=O)O)nn3)CC2)nc(N2CCN(C(=O)[C@H](CCCC[NH3+])n3cc(CC(C)O)nn3)CC2)n1.[Cl-] (some centres unmarked) | 14.7% |
| CC(=O)c1cnn(-c2ccc(Cl)cc2)c1C | 7.34% |
| CC(NC(=O)C1CCC(=O)N1Cc1ccc(F)cc1)c1ccc2c(c1)OCCO2 (centres unmarked) | 2.62% |
| CS(=O)(=O)N(CCc1ccccc1)CC(=O)NCC1CCCO1 (centres unmarked) | 8.98% |
| O=C(COC(=O)c1ccccn1)Nc1ccc(S(=O)(=O)N2CCOCC2)cc1 | -0.019% |
| COc1ccc(Nc2nc(C)cc(=O)[nH]2)cc1 | 19.6% |
| CC1CCCN(C(=O)C(=O)c2cn(CC(=O)N3CCCCCC3)c3ccccc23)C1 (centres unmarked) | 17.2% |
| CN(CC(=O)Nc1c(Cl)cccc1Cl)C(=O)CC1Sc2ccccc2NC1=O (centres unmarked) | -18.3% |
| COc1cc2c(cc1OC)C(c1cc(Br)ccc1O)N(C(C)=O)CC2 (centres unmarked) | 10.3% |
| Cn1cnnc1SCC(=O)Nc1ccc(Cl)cc1 | -3.12% |
| CCSc1nc(O)cc(=O)[nH]1 | 14.9% |
| Cc1ccc(C(=O)Nc2c(-c3cccs3)c(=O)c3ccccc3n2C)cc1 | -5.26% |
| O=C(NCC1CCCCC1)c1ccc(=O)[nH]c1 | 37.2% |

| Compound | hERG current change (%, negative = inhibition) at 10uM |
| --- | --- |
| CSCc1c(C(=O)OCC(=O)NC2CCCCC2)oc2ccccc12 | 1.84% |
| CCCn1c(N)c(C(=O)CN(C)CC(=O)Nc2cccc(F)c2)c(=O)[nH]c1=O | -75.1% |
| Cc1cc(C)c(NC(=O)Nc2ccccc2C)c(Cl)c1 | 8.77% |
| CCn1c(SCC(=O)C(C)(C)C)nnc1-c1cccnc1 | -0.363% |
| O=C(NC1CCSC1=O)c1ccccc1 (centres unmarked) | 15% |
| CCN1CCN(c2nc3c(c(=O)[nH]c(=O)n3C)n2CCSc2nc3ccccc3s2)CC1 | -21.6% |
| CC(=O)c1ccc(NC(=O)CCNS(=O)(=O)c2cc(Br)cnc2N)cc1 | 11.5% |
| COc1cccc(/C=N/NC(=O)c2[nH]nc3c2CCc2ccccc2-3)c1 | -13% |
| Cc1ccc(-c2nc(CN(Cc3c(C)nn(C)c3C)C(C)C)c(C)o2)o1 | -5.04% |
| CCOC(=O)N1CCN(C(=O)CCn2c(=S)[nH]c3ccsc3c2=O)CC1 | 18.2% |
| CNC(=O)c1cc2cc(Br)ccc2s1 | 10.1% |
| O=C(NCc1ccccc1)c1ccc(Br)cc1 | 8.14% |
| Cc1ccnc(NS(=O)(=O)c2ccc(NC(=O)c3snnc3C)cc2)n1 | 20.1% |
| COCCNC(=O)c1c[nH]c2ccc(S(=O)(=O)N3CCOCC3)cc2c1=O | 26.1% |
| CCCc1[nH]nc2c1C(c1cn[nH]c1-c1ccc(F)cc1)C(C#N)=C(N)O2 (centres unmarked) | 2.69% |
| COc1cc(NC(=O)c2cc(OC)c(OC)c(OC)c2)cc(-n2cnnn2)c1 | 17.4% |
| Cn1c(CCNC(=O)OC(C)(C)C)n[nH]c1=S | 14% |
| CC(=NCCc1c(C)[nH]c2ccc(OCc3ccccc3)cc12)C1=C(O)CC(c2ccccc2)CC1=O (centres unmarked) | 25.5% |
| O=C(Nc1ccc(NC(=O)C2CC2)nc1)c1ccco1 | 4.81% |
| CC1(C)Cc2cccc(OCC(=O)OCC(=O)c3ccccc3)c2O1 | 1.43% |
| O=C(NCCN1CCOCC1)c1cccc(S(=O)(=O)N(Cc2ccccc2)c2ccccc2)c1 | -19.3% |
| O=C(NC(NC1CCS(=O)(=O)C1)C(=O)c1ccccc1)c1ccc(Cl)cc1 (centres unmarked) | -51.6% |
| COc1ccc(NC(=O)Cc2c(F)c(F)c(F)c(F)c2F)cc1OC | 14.9% |

| Compound | hERG current change (%, negative = inhibition) at 10uM |
| --- | --- |
| O=C(CN1CCN(Cc2ccc(F)cc2)CC1)NCCc1ccccc1 | -13.6% |
| O=C(COc1ccc2ccccc2c1)N/N=C/c1ccccn1 | -17.1% |
| COCCCNC(=O)Cc1c(C)c2cc3c(cc2oc1=O)OC(C)(C)CC3 | 7.74% |
| O=C(CCCC(=O)OCC(=O)c1ccc(Cl)cc1)NC1CCCCC1 | 0.716% |
| O=C(O)C1CC(c2ccc(F)cc2)=NO1 (centres unmarked) | -0.111% |
| Cc1cc(C(=O)COc2ccccc2C(N)=O)c(C)n1C1CC1 | 17.2% |
| CC1CCc2c(sc3nc(SCC(=O)O)n(-c4ccccc4)c(=O)c23)C1 (centres unmarked) | 15.4% |
| COC(=O)c1c(N2C(=O)CC(Sc3ccccc3C(=O)O)C2=O)sc2c1CCCC2 (centres unmarked) | 16.7% |
| O=C(c1ccccc1Cl)N1N=C(c2cccs2)CC1c1cccc(O)c1 (centres unmarked) | 8.27% |
| Cn1cc(S(=O)(=O)N2CCN(c3ccc(F)cc3)CC2)c(=O)n(C)c1=O | -18.7% |
| Cc1cc(C(=O)COc2ccc([N+](=O)[O-])cc2)c(C)n1C1CC1 | -2.41% |
| N#C/C(=C1\CCCN1)c1nc(-c2ccccc2)cs1 | -1.8% |
| CCn1c(SCC(=O)c2ccc(Cl)cc2)nnc1-c1cccs1 | -10.8% |
| CC(=O)n1cc(/C=N/NC(=O)c2sc(C)nc2C)c2ccccc21 | 20% |
| CCCC1/C(=N/O)CC(c2ccccc2)NC1c1ccccc1 (centres unmarked) | 21.5% |
| COC(=O)C1CC(O)CN1C(=O)NC1CCCCC1 (centres unmarked) | -26.4% |
| CCOc1ccc(CNC(=O)CCS(=O)(=O)Cc2ccc(C)cc2)cc1OC | 18.9% |
| Cc1ccc(N(CC(=O)NCc2ccccc2)C(=O)c2csnn2)cc1 | -4.56% |
| COc1ccc(CC(=O)Nc2nnc(C)s2)cc1 | 9.08% |
| OC(COc1ccc(Br)cc1)Cn1ccnc1 (centres unmarked) | 3.39% |

— article PMC4336329 (PLoS ONE, 2015)
